Values joined by “and” are separate entries in the source; they are usually repeats but may differ in a detail not shown here. Identical values can stand only once. Like-named read-outs stand apart in the source and are kept apart here.
Columns and labels:
F-ATP synthase [1] = target: F-ATP synthase (Mycolicibacterium smegmatis, UniProt A0R1Z9+A0R200+A0R201+A0R202); assay: biochemical
F-ATP synthase [2] = settings: M. smegmatis IMVs; for ATP synthesis inhibition in combination with BDQ (Formula (VII)): FIG. 5; for ATP synthesis inhibition in combination with racemate of Formula (VI) (BDQ1): FIG. 4
F-ATP synthase [3] = assay type: biochemical; settings: read-out: IC50 of ATP synthesis inhibition in M. bovis BCG IMVs, FIG. 2C
[4] = IC50 for ATP synthesis inhibition (M. smeg., μM), M. smegmatis IMVs

`CCNc1cc(C)nc(Nc2ccc3[nH]c(-c4ccccc4)nc3c2)n1` was tested, and the IC50 (F-ATP synthase [1]; [4]) was 0.28 µM.
In the case of `COc1cc(C(O)(CCN(C)C)C(c2cc3cc(Br)ccc3nc2OC)c2ccnc(OC)c2OC)cc(OC)n1` (racemic) [Formula (V), reference compound], the “potency of racemate of Formula (V) in ATP synthesis inhibition in presence of (II)” value (F-ATP synthase [2]; with 300 nM of compound of Formula (II) versus racemate alone, FIG. 3) is reported as “increases the potency”.
For `CCNc1cc(C)nc(Nc2ccc3nc(-c4ccc(Cl)cc4)[nH]c3c2)n1` [Formula (II), N^2-(2-(4-Chlorophenyl)-1H-benzo[d]imidazol-5-yl)-N^4-ethyl-6-methylpyrimidine-2,4-diamine], the IC50 (F-ATP synthase [3]) was 8.7 nM, the “ATP synthesis inhibition in combination with BDQ (Formula (VII))” value (F-ATP synthase [2]; (II) added concentration dependently to 300 nM BDQ) was “almost full inhibition” and the “ATP synthesis inhibition in combination with racemate of Formula (VI) (BDQ1)” value (F-ATP synthase [2]; (II) added concentration dependently to 300 nM racemate of (VI)) was “almost full inhibition”. For the same molecule, the “ATP synthesis inhibition in combination with BDQ (Formula (VII))” value (F-ATP synthase [2]; addition of 3×IC50 (270 nM) of (II) to BDQ) was “completely inhibited”, the “ATP synthesis inhibition in combination with racemate of Formula (VI) (BDQ1)” value (F-ATP synthase [2]; addition of 3×IC50 (270 nM) of (II) to racemate of (VI)) was “completely inhibited” and the IC50 (F-ATP synthase [1]; IC50 of ATP synthesis inhibition in M. smegmatis IMVs, FIG. 2B) was 0.09 µM and ~0.09 µM.
Molecule `CCNc1cc(C)nc(Nc2ccc3nc(-c4cccc(Cl)c4)[nH]c3c2)n1` [Formula (III), N^2-(2-(3-Chlorophenyl)-1H-benzo[d]imidazol-5-yl)-N^4-ethyl-6-methylpyrimidine-2,4-diamine] has an IC50 (F-ATP synthase [1]; [4]) of 0.29 µM.

Reference: patent publication US12528793B2 (priority 2019, dated 2026)
